Measured values: PMC4735476, “Dataset concerning GroEL chaperonin interaction with proteins” (Data in Brief, 2016)

Target: T1, GroEL chaperonin ( (purified from Escherichia …, UniProt P0A6F5))
T1 construct: GroEL chaperonin, purified from Escherichia coli cells (HB101 strain) after expression of the plasmid pGroE4
Assay: fluorescence polarisation; 30×10^-9 M denatured fluorescein-labeled pepsin titrated with GroEL in 20 mM Tris–HCl, pH 7.5, 10 mM MgCl2, 600 mM NaCl; apparent constant, counted on GroEL cavities
Details: both partners purified

B1: fluorescein-labeled pepsin from porcine gastric mucosa (enzyme, UniProt P00791 60-385, looked up)
chain: IGDEPLENYLDTEYFGTIGIGTPAQDFTVIFDTGSSNLWVPSVYCSSLACSDHNQFNPDDSSTFEATSQELSITYGTGSMTGILGYDTVQVGGISDTNQIFGLSETEPGSFLYYAPFDGILGLAYPSISASGATPVFDNLWDQGLVSQDLFSVYLSSNDDSGSVVLLGGIDSSYYTGSLNWVPVSVEGYWQITLDSITMDGETIACSGGCQAIVDTGTSLLTGPTSAIANIQSDIGASENSDGEMVISCSSIDSLPDIVFTINGVQYPLSPSAYILQDDDSCTSGFEGMDVPTSSGELWILGDVFIRQYYTVFDRANNKVGLAPVA
modifications: fluorescein label (fluorescein isothiocyanate), position not stated
notes: Pepsin from porcine gastric mucosa; also called denatured pepsin; source: bought: Sigma (USA), used without additional purification; labelled with fluorescein isothiocyanate, PD-10 and MonoQ
Kd: 9.7 nM
